From the supplement of paper PMC12217912
The other results are listed elsewhere or left out. The full chains were built here from the parent and the listed change. Values near 0.05 are background.

B1: TEV protease; numbered along this chain (parent)
chain: MGESLFKGPRDYNPISSSICHLTNESDGHTTSLYGIGFGPFIITNKHLFRRNNGTLVVQSLHGVFKVKDTTTLQQHLVDGRDMIIIRMPKDFPPFPQKLKFREPQREERICLVTTNFQTKSMSSMVSDTSCTFPSGDGIFWKHWIQTKDGQCGSPLVSTRDGFIVGIHSASNFTNTNNYFTSVPKNFMELLTNQEAQQWVSGWRLNADSVLWGGHKVFMVKPEEPFQPVKEATQL

Variants of: B1
Experiment: raw area under fraction-flipped curve 0-4 h after induction (AUC4h, not background-subtracted), DNA-recorder readout of cleavage of the substrate (dimensionless); higher = more cleavage of the substrate by the protease variant
Conditions: temperature: 34 °C; time window: 0-4 h after rhamnose induction
Procedure: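 In vivo DNA recorder in E. coli TOP10(DE3) ΔrhaA at 34 °C. Each TEVp single-site mutant (parent TEVp 0) is paired with a single-site variant of the 7-mer TEVs (canonical ENLYFQ|S). The substrate sits between flexible linkers in a Bxb1-sfGFP-TEVs-SsrA fusion, so cleavage stabilises Bxb1 and speeds flipping of a recombination array, read by NGS. The value is the raw area under the fraction-flipped curve over 0-4 h after rhamnose induction (AUC4h), with ≥20 reads per time point. It is not background-subtracted; inactive controls average about 0.047.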
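Also: Bxb1 expression induced with 0.2% (w/v) L-rhamnose at OD600 near 0.5, cultures sampled hourly, flipped fraction per protease–substrate barcode pair counted by paired-end Illumina sequencing.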

Row | Variant | area with substrate ENLAFQS | area with substrate ENLCFQS | area with substrate ENLDFQS | area with substrate ENLEFQS | area with substrate ENLFFQS | area with substrate ENLHFQS | area with substrate ENLIFQS | area with substrate ENLKFQS | area with substrate ENLLFQS | area with substrate ENLNFQS | area with substrate ENLPFQS | area with substrate ENLRFQS | area with substrate ENLSFQS | area with substrate ENLTFQS | area with substrate ENLVFQS | area with substrate ENLWFQS | area with substrate ENLMFQS | area with substrate ENLQFQS | area with substrate ENLGFQS
1 | P40Y | 0.0611 | 0.0724 | 0.0526 | 0.0598 | 0.118 | 0.0394 | 0.0682 | 0.0713 | 0.0729 | 0.0696 | 0.0549 | 0.0753 | 0.0562 | 0.0768 | 0.0847 |  |  |  | 
2 | F41T | 0.0521 | 0.059 | 0.0605 | 0.0633 | 0.0693 | 0.056 | 0.0846 | 0.0748 | 0.0618 | 0.0595 | 0.065 | 0.0817 | 0.0503 |  |  | 0.0598 |  |  | 
3 | I43F | 0.099 |  | 0.0642 | 0.0754 | 0.0671 | 0.0464 |  | 0.0618 | 0.0622 | 0.0502 | 0.059 | 0.0682 | 0.0544 | 0.0536 | 0.06 |  | 0.0618 | 0.0519 | 
4 | I43G | 0.0494 |  | 0.039 | 0.0416 | 0.0499 | 0.0294 | 0.037 | 0.0424 | 0.0549 | 0.058 | 0.0531 |  | 0.0663 |  | 0.0468 | 0.0415 |  |  | 
5 | T44E | 0.0387 |  |  | 0.0404 |  |  | 0.056 | 0.0393 |  | 0.0449 |  | 0.0472 |  |  |  | 0.0403 |  |  | 
6 | N45C | 0.0782 |  | 0.0708 | 0.0517 | 0.119 | 0.0811 | 0.0968 |  | 0.0739 | 0.0793 |  | 0.0777 | 0.0515 |  |  | 0.0583 |  |  | 0.0842
7 | N45M | 0.058 | 0.0722 | 0.0657 | 0.0624 | 0.0797 | 0.0839 | 0.0419 | 0.065 | 0.0516 | 0.0638 | 0.0664 | 0.0683 | 0.0498 |  | 0.0634 | 0.0733 | 0.0413 | 0.0614 | 0.0695
8 | N45R | 0.0594 | 0.0537 | 0.0562 | 0.0656 | 0.0706 | 0.0589 | 0.0619 | 0.0613 |  | 0.0596 | 0.0585 |  | 0.0714 | 0.0642 |  |  |  | 0.0635 | 
9 | K46W | 0.0616 | 0.0548 | 0.057 | 0.0681 | 0.0695 | 0.0394 | 0.0627 | 0.0627 | 0.0648 | 0.0615 | 0.0287 | 0.0501 | 0.051 | 0.0476 | 0.0618 |  |  | 0.0375 | 
10 | H47M | 0.0411 | 0.0529 | 0.056 | 0.028 | 0.061 | 0.0636 | 0.055 | 0.0564 | 0.063 | 0.0632 | 0.0607 | 0.0302 | 0.053 | 0.0587 |  |  | 0.0547 | 0.056 | 
11 | R50E | 0.0605 | 0.0582 | 0.0636 | 0.0755 | 0.076 | 0.0612 | 0.0747 | 0.0717 | 0.0675 | 0.0648 | 0.068 | 0.0554 | 0.0695 |  |  | 0.056 | 0.071 |  | 0.0639
12 | R51K | 0.06 |  |  | 0.0955 | 0.0527 | 0.0684 |  |  |  | 0.0528 |  |  | 0.0675 |  |  |  | 0.0667 | 0.056 | 0.0752
13 | N52K | 0.0545 |  |  |  | 0.0628 | 0.0677 |  | 0.0849 |  |  | 0.0791 |  |  |  | 0.0552 |  |  | 0.0543 | 0.0665
